# Test results reported in the supplement of paper PMC4604168 (melanoma cell lines).
# The list shows a part of the results. Many values rest on one well or one pass, so single values are uncertain.
# Experiments:
# Experiment in all cases: cell count relative to DMSO control; melanoma cells; higher = more viable cells
# Conditions in all cases: library dose: low library concentration; 72 h
# MZ2-MEL = tested on: MZ2-MEL
# MeWo = tested on: MeWo
# RPMI7951 = tested on: RPMI7951
# RVH-421 = tested on: RVH-421
# SkMel28 = tested on: SkMel28
# SkMel2 = tested on: SkMel2
# SkMel30 = tested on: SkMel30
# SkMel5 = tested on: SkMel5
# UACC257 = tested on: UACC257
# UACC62 = tested on: UACC62
# 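Note: cell number obtained by counting DAPI-stained nuclei in high-throughput microscope images with image analysis software, screen run in 1,536-well plates.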
Compound,cell count (MZ2-MEL),cell count (MeWo),cell count (RPMI7951),cell count (RVH-421),cell count (SkMel28),cell count (SkMel2),cell count (SkMel30),cell count (SkMel5),cell count (UACC257),cell count (UACC62)
"CS(=O)(=O)c1ccc(C(=O)Nc2ccc(Cl)c(-c3ccccn3)c2)c(Cl)c1 [vismodegib] + O=C(CCCCCCC(=O)Nc1ccccc1)NO [vorinostat] (first compound 1 µM, partner dose 0.08 µM)",107%,101%,99.7%,110%,75.5%,95.9%,85.2%,86.3%,79%,80.3%
"CS(=O)(=O)c1ccc(C(=O)Nc2ccc(Cl)c(-c3ccccn3)c2)c(Cl)c1 [vismodegib] + N#Cc1c(O)c2c(-c3ccc(-c4ccccc4O)cc3)csc2[nH]c1=O [A769662] (first compound 1 µM, partner dose 2 µM)",97.2%,119%,96%,115%,111%,99.7%,94.1%,107%,101%,95.7%
"CS(=O)(=O)c1ccc(C(=O)Nc2ccc(Cl)c(-c3ccccn3)c2)c(Cl)c1 [vismodegib] + COC(=O)c1sccc1S(=O)(=O)Nc1ccc(Nc2ccccc2)cc1OC [GSK0660] (first compound 1 µM, partner dose 1 µM)",102%,114%,86.1%,118%,114%,93.5%,101%,92.5%,117%,96.8%
"NC1(c2ccc(-c3nc4ccn5c(=O)[nH]nc5c4cc3-c3ccccc3)cc2)CCC1 + CCc1ccc(CCOc2ccc(CC3SC(=O)NC3=O)cc2)nc1 [pioglitazone] (first compound 0.4 µM, partner dose 2 µM)",92.3%,83.4%,88.9%,87.6%,79%,78.8%,81.3%,84.2%,89.3%,74.6%
"CS(=O)(=O)c1ccc(C(=O)Nc2ccc(Cl)c(-c3ccccn3)c2)c(Cl)c1 [vismodegib] + Oc1nc(-c2ccc(C(F)(F)F)cc2)nc2c1CSCC2 [XAV939] (first compound 1 µM, partner dose 2 µM)",97.4%,95.4%,87.3%,98.8%,73.1%,97.1%,110%,78.8%,77%,84.7%
"C=C(c1ccc(C(=O)O)cc1)c1cc2c(cc1C)C(C)(C)CCC2(C)C [Bexarotene] + CCCCCCCCCCCC1=C(O)C(=O)C=C(O)C1=O [Embelin] (first compound 2 µM, partner dose 1.2 µM)",102%,99.4%,106%,88.3%,66.2%,96.5%,109%,87.9%,102%,91.8%
"C=C(c1ccc(C(=O)O)cc1)c1cc2c(cc1C)C(C)(C)CCC2(C)C [Bexarotene] + NCC(=O)Nc1ccc(-n2nc(C(F)(F)F)cc2-c2ccc3c(ccc4ccccc43)c2)cc1 [OSU03012] (first compound 2 µM, partner dose 1 µM)",87.2%,55.3%,83.9%,94.1%,58%,65.8%,45.4%,67.5%,82.7%,70.7%
"CS(=O)(=O)c1ccc(C(=O)Nc2ccc(Cl)c(-c3ccccn3)c2)c(Cl)c1 [vismodegib] + Cc1ccc(NC(=O)c2cccc(N(C)C)c2)cc1NC(=O)c1ccc(O)cc1 [ZM336372] (first compound 1 µM, partner dose 2 µM)",85.8%,106%,82.9%,114%,92.2%,113%,99.6%,94.6%,92.3%,114%
"CS(=O)(=O)c1ccc(C(=O)Nc2ccc(Cl)c(-c3ccccn3)c2)c(Cl)c1 [vismodegib] + OCCn1cc(-c2cnc3nnn(Cc4ccc5ncccc5c4)c3n2)cn1 [PF04217903] (first compound 1 µM, partner dose 1 µM)",101%,104%,118%,99.3%,88.7%,91.9%,98.6%,102%,102%,109%
"C=C(c1ccc(C(=O)O)cc1)c1cc2c(cc1C)C(C)(C)CCC2(C)C [Bexarotene] + CC1(C)NC(=O)N(c2ccc([N+](=O)[O-])c(C(F)(F)F)c2)C1=O [nilutamide] (first compound 2 µM, partner dose 1 µM)",106%,99.3%,81.7%,103%,78.7%,86.7%,104%,79.8%,101%,102%
